# ± gives the uncertainty stated by the source. In all, about 9,900 compounds were measured (“viability index relative to DMSO control”: median about 1, lowest 2% from about 0.85 on). This is one part of the list.
# Tested on: Plasmodium falciparum NF54 stage V gametocytes
# Test: viability index relative to DMSO control (fraction); higher = less gametocyte killing
# Details: 2.5 µM, library set: Broad Institute DOS, incubation time: 72 h
# In short: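 Stage V gametocytes of P. falciparum NF54 were held in serum-free screening medium at 0.75% gametocytemia and 1.25% hematocrit, 10 µl per well of a 1,536-well plate, and exposed to compound at 2.5 µM for 72 hr at 37°C under low oxygen. A 3 µl mix of 2.5 µM MitoTracker Red CMXRos with 0.13% saponin was then added for one to two hours, after which one field per well was imaged and red particles of 20–70 µm2 were counted. The viability index equals this count divided by the plate mean from wells given solvent alone.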
row,SMILES,viability index
1,C[C@H]1CN([C@@H](C)CO)C(=O)c2ccccc2-c2ccccc2CO[C@H]1CN(C)C(=O)c1cc(Cl)cc(Cl)c1,0.884 ± 0.0063
2,CNC[C@H]1OCCCC[C@@H](C)Oc2ccc(NC(=O)Nc3ccc(OC)cc3)cc2C(=O)N([C@@H](C)CO)C[C@H]1C,1.05 ± 0.023
3,N#C[C@H]1[C@H](c2ccc(C#Cc3ccccc3F)cc2)[C@@H](CO)N1C(=O)c1cccnc1,1.02 ± 0.033
4,CN1C(=O)c2cc(NS(=O)(=O)c3ccccc3F)ccc2OC[C@@H]2O[C@@H](CC(=O)NC3Cc4ccccc4C3)CC[C@H]21,1.09 ± 0.025
5,C[C@@H]1CN([C@@H](C)CO)C(=O)c2cc(N(C)C)ccc2O[C@@H](C)CCCCO[C@@H]1CN(C)Cc1ccc(C(=O)O)cc1,1.1 ± 0.099
6,CO[C@H]1CN(C)C(=O)c2cc(NC(=O)NC(C)C)ccc2OC[C@@H](C)N(C(=O)CN(C)C)C[C@H]1C,1.03 ± 0.043
7,C(=C\c1ccc([C@@H]2[C@@H]3CN(Cc4cocn4)C[C@H]2N3)cc1)/c1ccccc1,0.889 ± 0.012
8,COc1ccc([C@@H]2C/C=C/C[C@@H](C)Oc3ccccc3C(=O)N(C)[C@H](C(C)C)C(=O)N2)c(OC)c1.COc1ccc([C@@H]2C/C=C\C[C@@H](C)Oc3ccccc3C(=O)N(C)[C@H](C(C)C)C(=O)N2)c(OC)c1,1.06 ± 0.033
9,COc1ccc(-c2ccc([C@@H]3[C@@H](CO)N4C(=O)CN(C(=O)C5CC5)C[C@@H]34)cc2)cc1,1.01 ± 0.013
10,O=C1CCC(=O)NCC/C=C/CCN1,1.09 ± 0.052
11,Cc1noc(C)c1S(=O)(=O)N(C)C[C@H]1OCCCC[C@@H](C)Oc2ccc(N(C)C)cc2C(=O)N([C@H](C)CO)C[C@@H]1C,1.02 ± 0.029
12,C[C@@H]1CCCCO[C@H](CN(C)C(=O)Nc2cccc3ccccc23)[C@@H](C)CN([C@H](C)CO)C(=O)c2cc(NC(=O)CCC(F)(F)F)ccc2O1,1.03 ± 0.025
13,C/C=C/c1ccc([C@@H]2[C@H](CO)N(CC3CCOCC3)C23CN(C(=O)COC)C3)cc1,1.08 ± 0.027
14,C[C@@H]1CN([C@@H](C)CO)C(=O)c2cc(NS(=O)(=O)c3ccccc3)ccc2O[C@@H](C)CCCCO[C@H]1CN(C)C(=O)C1CCCCC1,1.06 ± 0.021
15,N#C[C@H]1[C@H](c2ccccc2-c2ccccc2F)[C@@H](CO)N1C(=O)Cc1ccccc1,1.06 ± 0.049
16,COc1ccccc1S(=O)(=O)N1C[C@@H]2N[C@H](C1)[C@@H]2c1ccc(-c2cccnc2)cc1,1.05 ± 0.057
17,COc1ccc(-c2ccc([C@H]3[C@@H]4CN(C(=O)c5ccc(F)cc5)C[C@H]3N4)cc2)cc1,1.058 ± 0.0098
18,C[C@@H]1CC(=O)NCC/C=C\C[C@@H](c2cccc(Cl)c2)NC1=O,1.059 ± 0.01
19,COc1ccc2c3c([C@@H](CO)N(C[C@]33CN(C3)C(=O)NC(C)C)C(=O)CC3CC3)n(C)c2c1,0.904 ± 0.037
20,CO[C@H]1CN(C)C(=O)c2cc(NS(C)(=O)=O)ccc2OC[C@@H](C)N(C(=O)C2CCOCC2)C[C@H]1C,1.08 ± 0.044
21,O=C(c1cnccn1)N1C[C@@H]2N[C@H](C1)[C@H]2c1ccc(/C=C/c2ccccc2)cc1,1.07 ± 0.026
22,CN(C)CC(=O)N1C[C@@H]2N[C@H](C1)[C@@H]2c1ccc(-c2ccccc2F)cc1,0.745 ± 0.074
23,Cc1noc(C)c1NC(=O)N(C)C[C@H]1Oc2ccc(NC(=O)Cc3cn(C)c4ccccc34)cc2CC(=O)N([C@H](C)CO)C[C@H]1C,1.02 ± 0.061

row,SMILES,viability index
1,COc1ccc2c3c([C@H](CO)NC[C@]33CCN(Cc4ccncc4)CC3)n(C)c2c1,1.03 ± 0.022
2,CCC(=O)N1[C@H](CO)[C@H](c2ccccc2)C12CN(C(=O)CN1CCOCC1)C2,1.02 ± 0.097
3,COCC(=O)N1C[C@@H](C)[C@H](OC)CN(C)C(=O)c2ccc(NC(=O)Nc3cccc(F)c3)cc2OC[C@H]1C,1.01 ± 0.055
4,O=C(Cc1ccccc1)N1CC[C@@H]2[C@@H](CO)Nc3ccc(C#Cc4cccc(F)c4)cc3[C@@H]21,1.1 ± 0.022
5,CO[C@H](CN(C)C(=O)c1ccccc1F)[C@H](C)CN([C@@H](C)CO)S(=O)(=O)c1ccc(F)cc1,0.976 ± 0.058
6,C[C@@H]1CN([C@@H](C)CO)C(=O)c2cc(NC(=O)CCC(F)(F)F)ccc2O[C@@H](C)CCCCO[C@@H]1CN(C)C(=O)Nc1cccc2ccccc12,0.734 ± 0.082
7,C[C@H]1CN([C@@H](C)CO)C(=O)c2ccccc2-c2ccccc2CO[C@@H]1CN(C)C(=O)[C@@H]1CCCN1C,0.946 ± 0.043
8,N#C[C@H]1[C@@H](c2ccccc2C2=CCCC2)[C@H](CO)N1S(=O)(=O)c1cccc(F)c1,1.06 ± 0.056
9,CN(C)CC(=O)N1[C@H](C#N)[C@H](c2ccc(-c3cccc(C(=O)N(C)C)c3)cc2)[C@H]1CO,1.09 ± 0.066
10,CN(C)CC(=O)N1[C@H](C#N)[C@@H](c2ccccc2-c2ccccc2F)[C@@H]1CO,1.15 ± 0.13
11,C[C@@H]1CN([C@H](C)CO)C(=O)CCCn2cc(nn2)CO[C@H]1CN(C)C(=O)Nc1ccc2c(c1)OCO2,1.05 ± 0.042
12,O=C(CC1CC1)N1CC2(C1)[C@@H](c1ccccc1)[C@H](CO)N2C(=O)c1ccccn1,1 ± 0.013
13,COc1ccc2c3c([nH]c2c1)[C@H](CO)NC[C@]31CN(C1)C(=O)Nc1c(C)noc1C,1.081 ± 0.0086
14,C[C@@H]1CCCCO[C@H](CN(C)S(=O)(=O)c2cn(C)cn2)[C@H](C)CN([C@@H](C)CO)C(=O)c2cc(NC(=O)Nc3cccc4ccccc34)ccc2O1,0.971 ± 0.037
15,C[C@H](CO)N1C[C@H](C)[C@H](CN(C)S(=O)(=O)c2cn(C)cn2)OCCCC[C@H](C)Oc2ccc(N(C)C)cc2C1=O,1.02 ± 0.029
16,Cc1ccccc1-c1ccc([C@H]2[C@H]3CN(C(=O)Nc4cccc(F)c4)CC(=O)N3[C@H]2CO)cc1,1.003 ± 0.0018
17,CO[C@@H]1CC[C@H]2CCOc3ccc(C#N)cc3C(=O)N(C)[C@H](C)C(=O)N(C)C[C@@H]1O2,0.956 ± 0.017
18,O=C(C[C@@H]1CC[C@H](NC(=O)c2ccc3c(c2)OCO3)[C@@H](CO)O1)NCc1ccc(Oc2ccccc2)cc1,1.06 ± 0.021
19,COc1ccc(S(=O)(=O)Nc2ccc3c(c2)C(=O)N([C@H](C)CO)C[C@@H](C)[C@H](CN(C)Cc2ccc(C(F)(F)F)cc2)OCCCC[C@@H](C)O3)cc1,0.898 ± 0.12
20,C[C@@H]1C/C=C/C[C@@H](c2ccc3c(c2)OCO3)NC(=O)[C@H](C)N(C)C(=O)c2ccccc2O1.C[C@@H]1C/C=C\C[C@@H](c2ccc3c(c2)OCO3)NC(=O)[C@H](C)N(C)C(=O)c2ccccc2O1,0.983 ± 0.038
21,CN(C)CC(=O)N[C@H]1C=C[C@H](CC(=O)NCc2ccc(Cl)cc2)O[C@H]1CO,1.11 ± 0.15
22,CCN(C[C@H]1N[C@H](CO)[C@@H]1c1ccccc1)C(=O)c1ccncc1,1 ± 0.019
23,COc1ccccc1NC(=O)N1C[C@@H](O)COC[C@@H]2O[C@H](CC(=O)N3CCC(Cc4ccccc4)CC3)CC[C@H]21,1.08 ± 0.054

row,SMILES,viability index
1,COC(=O)[C@H]1[C@H](CO)[C@H]2Cn3c(ccc(/C=C/c4ccccc4)c3=O)[C@H]2N1CCC(F)(F)F,1.004 ± 0.0063
2,N#Cc1cccc(-c2ccc([C@H]3[C@@H](CO)N4CCCCN(Cc5ccccc5F)C[C@@H]34)cc2)c1,1.07 ± 0.067
3,C[C@H]1CN([C@@H](C)CO)C(=O)c2cc(NC(=O)C3CCCCC3)ccc2O[C@H]1CN(C)C(=O)Nc1ccc(C(F)(F)F)cc1,1.06 ± 0.044
4,COCC(=O)N1CC2(C1)[C@H](c1ccccc1)[C@H](CO)N2C(=O)NC1CCCC1,1.07 ± 0.042
5,COc1ccc2c3c([nH]c2c1)[C@@H](CO)N(C[C@]31CCN(CC1)S(=O)(=O)c1cccc(C)c1)C(=O)Nc1cccc(F)c1,1.01 ± 0.065
6,C[C@H](CO)N1C[C@H](C)[C@@H](CN(C)Cc2ccc(-c3ccccc3)cc2)Oc2ccc(N(C)C)cc2CC1=O,0.91 ± 0.16
7,N#C[C@@H]1[C@@H](c2ccc(/C=C/c3ccccc3)cc2)[C@@H](CO)N1C(=O)Cc1ccccn1,1.04 ± 0.022
8,N#Cc1cccc(-c2ccc([C@H]3[C@H]4CNC[C@@H]3N4Cc3cc(F)ccc3F)cc2)c1,1.1 ± 0.029
9,N#Cc1cccc(-c2ccc3c(c2)[C@H]2[C@H](CCN2C(=O)CN2CCOCC2)[C@H](CO)N3)c1,1.05 ± 0.021
10,Cc1noc(C)c1S(=O)(=O)Nc1ccc2c(c1)C(=O)N([C@H](C)CO)C[C@@H](C)[C@H](CN(C)Cc1ccc(C(=O)O)cc1)OCCCC[C@@H](C)O2,1.07 ± 0.12
11,CN1c2ccc(-c3cccc(C#N)c3)cc2[C@@H]2[C@@H](CCN2C(=O)CN2CCOCC2)[C@H]1CO,1.03 ± 0.11
12,O=C(CC(F)(F)F)N1C[C@@H]2[C@H](c3ccccc31)[C@@H](CO)N2Cc1cccnc1,1.02 ± 0.037
13,CO[C@H]1CC[C@@H]2CCN(C)C(=O)[C@H](C)CN(C)C(=O)c3cc(C#N)ccc3OC[C@H]1O2,0.99 ± 0.035
14,NCC[C@H]1CC[C@H](NS(=O)(=O)c2ccc(Cl)cc2)[C@@H](CO)O1,1.1 ± 0.039
15,O=C(CC1CC1)N1CC2(C1)[C@@H](c1ccccc1)[C@@H](CO)N2S(=O)(=O)Cc1ccccc1,1.07 ± 0.026
16,C[C@H](CO)N1C[C@H](C)[C@@H](CN(C)S(=O)(=O)c2cccc(C#N)c2)OCc2ccccc2-c2ccccc2C1=O,1.03 ± 0.032
17,O=C(C[C@@H]1CC[C@@H]2[C@H](COC[C@H](O)CN2C(=O)Nc2ccccc2)O1)NCc1ccccc1F,1.05 ± 0.13
18,O=C(CC1CC1)N1CC[C@@H]2[C@H]1c1cc(-c3ccc(F)cc3)ccc1N[C@@H]2CO,1.046 ± 0.009
19,O=C(Nc1cc(F)ccc1F)N[C@H]1CC[C@@H](CC(=O)N2CCc3ccccc3C2)O[C@@H]1CO,1.05 ± 0.05
20,N#C[C@H]1[C@@H](c2ccc(-c3cccc(F)c3)cc2)[C@@H](CO)N1C(=O)NC1CCCC1,0.916 ± 0.12
21,CCS(=O)(=O)N1[C@H](C#N)[C@H](c2ccc(C#Cc3ccccc3F)cc2)[C@@H]1CO,1.12 ± 0.053
22,CC(C)NC(=O)Nc1cccc2c1O[C@@H](CN(C)C(=O)Nc1ccccc1)[C@@H](C)CN([C@H](C)CO)C2=O,1.1 ± 0.11
23,O=C(c1ccncc1)N1CC2(C1)[C@@H](c1ccccc1)[C@@H](CO)N2CC1CC1,1.09 ± 0.021
